Laboratory results as given in the supplement of paper PMC11417369.
± gives the standard deviation of the averaged measurements. This is one part of the list.

What follows are sequences tested on PfAP2-G AP2 domain (GST-tagged) (assay: gcPBM binding intensity (ln(normalized median fluorescence intensity)); higher = stronger DNA binding).
How it was run: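 Each value is the highest Masliner-normalised natural-log median intensity across replicate spots of either orientation of a probe. The probes were primer-extended double-stranded 36-bp intergenic genomic sequences on an Agilent 4 × 180k array, alongside negative controls, exposed for 1 h to GST-tagged P. falciparum DNA-binding domains expressed in E. coli. Bound protein was picked up with Alexa488 anti-GST antibody and scanned at 488 nm.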

| Sequence | gcPBM binding intensity (ln) |
| --- | --- |
| AATAATAATATATGTAGTACACATTTCCATTATGTT [XGTACX_site3708] | 11.6 ± 0.95 |
| AAAAAAAAAAAAAAAACACACATTTCTTTTTCATAT [CACACA_site11] | 10.35 ± 0.078 |
| TAATAGGAAATTATAGGTACACATACAAATAAATAA [XGTACX_site3587] | 11.3 ± 0.97 |
| TTAATTATATATAAAAGTACTTATTTTTCCATATAA [XGTACX_site3033] | 11.2 ± 0.93 |
| AGAAAAAAAAAACACACACACACACCCTCAATATAA [CACACA_site39] | 9.985 ± 0.007 |
| AGAAAAAATAAAAATAGTACTCAAAAAATTATGAAT [XGTACX_site4908] | 11.3 ± 0.8 |
| ACATAAATAATAAAAACACACATATGTACAGATATA [CACACA_site5112] | 11.1 ± 0.59 |
| AATGGTACATGATACACACACGCACATATATATATT [CACACA_site3425] | 10.8 ± 0.51 |
| ATGTAGATATATATATGTACTAATTAGTAGTTTACG [XGTACX_site6275] | 11.1 ± 0.64 |
| AATGGATGGTCCAAATGTACATATATATATATATAT [XGTACX_site4800] | 11.1 ± 0.61 |
| TAAATAAACCTGACTTGTACATGTAAAATAAATATA [XGTACX_site1667] | 11 ± 0.59 |
| ATTTATATATTGCCCACACACATGTGATTATTTATA [CACACA_site1714] | 10.5 ± 0.29 |
| ATATTAAAAAGAAGTGTGCGCAAAACATTAACTTGA | 10.6 ± 0.33 |
| TTATATGAAAAAATATGTACGTATAATGAGAAATAT [XGTACX_site8987] | 11.5 ± 0.92 |
| AAATAGATAAACTAAACACACAAAAAAAAAAAAAAT [CACACA_site1179] | 9.82 ± 0.071 |
| TAATATAACTACATAACACACGAAAATATATGAATC [CACACA_site3628] | 9.99 ± 0.14 |
| AAAATAACGAGTCAAACACACATATTTATATTTATA [CACACA_site7050] | 9.9 ± 0.11 |
| TCTTTTTTTTTTATTTGTACTTATTTTTTTCAAAAA [XGTACX_site3403] | 11.5 ± 0.83 |
| GTTATAAATGCATATACACACATACGTACATACATA [CACACA_site7655] | 11.4 ± 0.92 |
| TCATTAATCAGGTATGCATGCATAACTATTAAAAAT [TGCATGCA_site90] | 9.785 ± 0.078 |
| ACTTATAAAATAACATGTACAAATATTTATTATATA [XGTACX_site133] | 11 ± 0.54 |
| TAAACATAAATATACACACAAACATATATGTATTTT [CACACA_site1214] | 9.74 ± 0.15 |
| AAATTATAAATACCTACACACTTATCAAAATAAATT [CACACA_site5280] | 9.925 ± 0.064 |

| Sequence | gcPBM binding intensity (ln) |
| --- | --- |
| AAAAAAAAAAAACACACACACACACCGACAAAATAT [CACACA_site8411] | 10.1 ± 0.2 |
| AAAAAAAAAAGGTGTACATGCAAAATAAATTCTTAA [TGCATGCA_site556] | 11.6 ± 1.1 |
| TATGGTAACATATGCTGTACAATATAATATGTTTAA [XGTACX_site1601] | 10.9 ± 0.57 |
| TAATAATTTATATATGCATGTCAAAATAATATTAAA [TGCATGCA_site12] | 9.92 ± 0.14 |
| TATATAAATATAATATGTACATATAATATGTATATA [XGTACX_site8120] | 11.1 ± 0.71 |
| TATATATTTTTATGTGTGCACTGTTTCATAAAAGAA | 10.7 ± 0.53 |
| AATATTTTTTTATAAACACACATATATATAAATATA [CACACA_site3524] | 9.88 ± 0.11 |
| TATAATGGATGCTAGCTGCACTAATAAGCAAAAATA | 10 ± 0.13 |
| GCATAAATCAAACACACACACATATATATATATATA [CACACA_site2422] | 10.4 ± 0.7 |
| AATGAATATAGTACTGAATGTAATTTAAGGTTTTCC [CACACA_negctrl_site1548] | 10.7 ± 0.58 |
| TAAATGAGAAGGACTGCACACTAAAATGGAAGGAGA [CACACA_site8449] | 10.4 ± 0.38 |
| TATTTGTATATATGTGTGCACGTATAATCCATTAAA [GTGCAC_site9569] | 10.6 ± 0.38 |
| AAAATTTCAAATAACACACACTAATATATATCTGTA [CACACA_site4904] | 9.7 ± 0.19 |
| GATGATATATATTAGCGTACATGTATATATACCATT [XGTACX_site6404] | 11.3 ± 0.82 |
| GTGGACGAAATAGTTGTAAATTTATGTGCAAACCTC [XGTACX_negctrl_site564] | 10.7 ± 0.47 |
| ATATATATATCATATTGTACATACTTGTATTTATAT [XGTACX_site2432] | 10.9 ± 0.67 |
| TCCTTACCTATTAAAGCATGCTCGAATATATATTTT [TGCATGCA_site53] | 9.81 ± 0.18 |
| TATATTAAATATTACACACATACATTTAGTGTCAAA [CACACA_site1990] | 10.1 ± 0.21 |
| TGGGAGCACAGACACACACACACACCGATATATATA [CACACA_site8001] | 10.4 ± 0.38 |
| AACAAAATAAATGTATGTACATATATATATATATAT [XGTACX_site7974] | 11.2 ± 0.51 |
| AAAAAAAACGAACACACACACAAATATGTAAAAATA [CACACA_site6673] | 10.2 ± 0.23 |
| TATATAAATATACAAACACACATACAAACATATATA [CACACA_site4754] | 10.12 ± 0.064 |
| GAAAATAAAATAAATGCATGTAAATTTAATGTAATG [TGCATGCA_site996] | 10.06 ± 0.085 |

| Sequence | gcPBM binding intensity (ln) |
| --- | --- |
| CACACAATGGCTAGCTGTACATAATATATATCTACA [XGTACX_site4691] | 11.1 ± 0.69 |
| TAAAAACAAAAATGTTGTACATAATATAAAACAATT [XGTACX_site6380] | 11.2 ± 0.85 |
| AAAAAAAAAAAATGTGCATGCTATATATATATATAT [TGCATGCA_site727] | 10.1 ± 0.59 |
| ATATATATATTTACATGTACACATCTATATATAAAC [XGTACX_site5581] | 11.5 ± 0.86 |
| TTTTTTTTTCATTATTGTACATTGAAACTTCATTTT [XGTACX_site6041] | 10.7 ± 0.3 |
| TTAACAAATAGACACACACACACACGCAAAAAAAAA [CACACA_site6387] | 10.5 ± 0.42 |
| TGGTATCAAAAGAATACACACACACCGACATATATA [CACACA_site9265] | 10.2 ± 0.13 |
| GAATATAAACATATTACACACATCTATCTGTACATT [CACACA_site5114] | 10.6 ± 0.46 |
| GTGGGAAACATAAACACACACAAAAAGAAAAAATAG [CACACA_site4810] | 10.2 ± 0.23 |
| AAAATAAAATAATAAAATAAAATAATAATAAAATAA [TGCATGCA_negctrl_site401] | 9.3 ± 0.042 |
| AATACATATATATATTGTACATATAGGGAAAAATTA [XGTACX_site2275] | 10.9 ± 0.5 |
| TACATACATACATACACACACACATATAAATACATA [CACACA_site4626] | 10.5 ± 0.18 |
| TCTCTAACTTTTAATACACACAAATAAATAAATAAA [CACACA_site6245] | 10.1 ± 0.37 |
| GTTTTATTTATTTCATGTACACAAAAAAGGTTTTAA [XGTACX_site6525] | 11.5 ± 0.94 |
| TATTTTAATATTTGTAGTACAGATTGAAATGACGAA [XGTACX_site4805] | 11.6 ± 1.1 |
| AATATAATCTTTCAAAAGAAAAAGACTTCATGAAAA [CACACA_negctrl_site1331] | 9.73 ± 0.11 |
| ATATACGCATTAATAACACACAATATGATAACAAAT [CACACA_site3623] | 10.2 ± 0.092 |
| AAAATGTATGGAATGCTCTTTTTTAAGTATTATATA [GTGCAC_negctrl_site175] | 9.78 ± 0.042 |
| ACAAAATTGATATATGCACACATATATATATTAAAT [CACACA_site8152] | 9.9 ± 0.13 |
| GTAGGTTTATATTGTAGTACATACAAACGTTAACAA [XGTACX_site5476] | 11.4 ± 0.95 |
| TATATTTATTAGTTTCGTACGTACAAAGTTATTTTT [XGTACX_site8847] | 11.4 ± 0.82 |
| AATATTGCACCATTTTGTACATAATATATTCAAATA [XGTACX_site475] | 11.1 ± 0.64 |
| TTTATTTATTATTAAAGTACTAAAATATATTATTAT [XGTACX_site4887] | 10.8 ± 0.59 |

| Sequence | gcPBM binding intensity (ln) |
| --- | --- |
| ATACGTATTTTCTTTTGTACATATATATAAAATATT [XGTACX_site2675] | 11 ± 0.49 |
| TTTTTTTTTTGATGTTGTACATATATATTATATAAT [XGTACX_site2765] | 11.3 ± 0.52 |
| GCTATTTATTTATATTGTACTTTTTTTTTTTTTTTT [XGTACX_site3624] | 11.7 ± 1.1 |
| TATTTTGTTCTTTCCACACACAAATACCTATCTTGT [CACACA_site7833] | 10.27 ± 0.092 |
| ATGTAACATAGGAAATGTACATATAAATATAATTTA [XGTACX_site6452] | 11.1 ± 0.59 |
| TTTTATTGATTATTCATAAATATGCTATTCATCTAA [CACACA_negctrl_site1084] | 9.5 ± 0.23 |
| ATTCGTGAACTAGCCAAACACACGAAAAAAAAAAAA [CACACA_site3342] | 10.1 ± 0.38 |
| CATACATATATATATACACACATACATATATATACA [CACACA_site8165] | 10.2 ± 0.27 |
| TTTTTTTTTGGGGGTGCATGCAAGACATATATTTAA [TGCATGCA_site228] | 11 ± 0.76 |
| TGGAGGTCATTACACAGTACCCAGGAAATCTACGGA [XGTACX_site2004] | 11 ± 0.69 |
| AATCCTTAAAATTAACGTACGAAATGAATTTATTAA [XGTACX_site956] | 10.7 ± 0.36 |
| ATAATAACAAAATATTAACACACATAACATATTATA [CACACA_site8906] | 9.855 ± 0.049 |
| ACAAAACAAAACAAAAGTACACAAAATAAATAAGAT [XGTACX_site6497] | 11.5 ± 0.92 |
| AAACCGTGGGAGCACACACACACACCCACCCATATA [CACACA_site332] | 10.4 ± 0.4 |
| TTCTGTCAATATGCTTGTACGAAATATTTCGTAATT [XGTACX_site3182] | 11 ± 0.58 |
| ATATATATAAAATATGGTACAGAAAAAGTCTTGTTT [XGTACX_site8868] | 10.9 ± 0.45 |
| ATAAATAAATACTAGGCACACACACCGATATATATA [CACACA_site8649] | 10.1 ± 0.17 |
| AAAATAAACCCAGACACACTCATTAAAAAATATCAT [CACACA_site5903] | 9.95 ± 0.099 |
| TATTAATCCTTTTGCTTGGAAACATTCAAAAGGAAG [CACACA_negctrl_site1129] | 9.82 ± 0.099 |
| TATATTATATTTTTATGTACTTATTTATTTTGTTTC [XGTACX_site6145] | 11.3 ± 0.67 |
